Numbering of substitutions follows the chain as printed. Names and notes keep the numbering of the source. No constants are given. Whether binding was seen depends on the method and setting. For some of these results: Binding seen in cells or lysates may run through a third protein. Some entries that bind do so weakly or less than the wild type. For some of these results: Where a sequence is shown, tags or fusion partners need not be part of it.

One assay has as its target T1, YFP^C-SOS2 (Arabidopsis) (UniProt Q9LDI3).
T1 sequence: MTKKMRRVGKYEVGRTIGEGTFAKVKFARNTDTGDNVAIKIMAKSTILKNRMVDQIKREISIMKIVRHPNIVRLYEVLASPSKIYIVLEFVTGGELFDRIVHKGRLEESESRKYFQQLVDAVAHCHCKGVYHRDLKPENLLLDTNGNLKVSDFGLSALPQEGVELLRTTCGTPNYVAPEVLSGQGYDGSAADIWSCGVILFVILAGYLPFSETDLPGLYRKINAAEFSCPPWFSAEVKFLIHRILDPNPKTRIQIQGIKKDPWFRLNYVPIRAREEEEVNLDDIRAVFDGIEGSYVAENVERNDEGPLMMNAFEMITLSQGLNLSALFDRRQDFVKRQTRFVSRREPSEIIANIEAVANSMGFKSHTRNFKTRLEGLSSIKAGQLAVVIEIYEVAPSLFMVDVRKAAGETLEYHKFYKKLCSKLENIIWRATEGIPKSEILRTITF
The assay is described as follows: split reporter; BiFC, YFP^N and YFP^C fusions in N. benthamiana leaves, confocal microscopy.

Assay [1] deals with T2, pGBKT7-PKS5 (Arabidopsis) (UniProt O22932).
T2 sequence: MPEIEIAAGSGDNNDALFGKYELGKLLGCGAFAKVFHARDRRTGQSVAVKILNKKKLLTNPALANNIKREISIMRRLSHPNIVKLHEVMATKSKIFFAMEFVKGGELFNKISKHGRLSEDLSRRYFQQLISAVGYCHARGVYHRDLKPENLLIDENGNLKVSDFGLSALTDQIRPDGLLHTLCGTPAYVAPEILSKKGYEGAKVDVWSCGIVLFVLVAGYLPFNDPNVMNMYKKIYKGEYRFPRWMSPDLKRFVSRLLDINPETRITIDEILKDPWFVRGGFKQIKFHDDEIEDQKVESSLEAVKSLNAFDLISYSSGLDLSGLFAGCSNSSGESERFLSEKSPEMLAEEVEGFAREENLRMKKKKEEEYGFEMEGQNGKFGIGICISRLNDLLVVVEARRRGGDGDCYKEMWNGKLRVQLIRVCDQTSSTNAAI
Put plainly: two-hybrid; pGBKT7 and pGADT7 fusions co-transformed into yeast AH109; SC/-Trp/-Leu or SC/-Trp/-Leu/-His medium.

Assay [2] addresses T3, pGBKT7-PKS5C, C-terminal regulatory domain (amino acids 307–435) (Arabidopsis) (UniProt O22932).
T3 sequence: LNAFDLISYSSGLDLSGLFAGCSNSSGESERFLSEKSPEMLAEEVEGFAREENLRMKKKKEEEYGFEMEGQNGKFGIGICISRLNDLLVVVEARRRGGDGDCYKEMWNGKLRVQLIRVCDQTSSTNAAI
The description is as above.

Assay [3] deals with T4, SOS2 (yeast two-hybrid with 14-3-3λ, vector not stated) (Arabidopsis) (UniProt Q9LDI3).
T4 sequence: T1 sequence
Described as above.

For assay [4], the target named is T5, pGBKT7-PKS5JD, junction domain (amino acids 281–306) (Arabidopsis) (UniProt O22932).
T5 sequence: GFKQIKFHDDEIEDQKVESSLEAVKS
The description is as above.

Assay [5] concerns the target T6, pGBKT7-PKS5N, kinase domain (amino acids 1–280) (Arabidopsis) (UniProt O22932).
T6 sequence: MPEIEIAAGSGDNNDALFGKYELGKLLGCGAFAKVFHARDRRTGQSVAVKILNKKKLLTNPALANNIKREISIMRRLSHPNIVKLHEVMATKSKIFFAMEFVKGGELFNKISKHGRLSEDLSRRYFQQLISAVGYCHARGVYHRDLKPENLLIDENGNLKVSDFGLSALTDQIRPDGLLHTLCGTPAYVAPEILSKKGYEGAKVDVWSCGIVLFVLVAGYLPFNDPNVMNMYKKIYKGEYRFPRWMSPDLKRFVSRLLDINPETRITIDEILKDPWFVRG
The assay is described as above.

Assay [6] addresses T7, PKS5 in pCAMBIA-nLuc (Arabidopsis) (UniProt O22932).
T7 sequence: T2 sequence
The assay is described as follows: split reporter; split-luciferase complementation (LUC) imaging, nLuc and cLuc fusions in N. benthamiana leaves, 1 mM luciferin; with or without co-expressed PKS5, PKS5-3, PKS5-4, PKS5^K50N or SCaBP1; with or without 200 mM NaCl for 5-30 min.

The next assay addresses T8, nLuc-SOS2 (Arabidopsis) (UniProt Q9LDI3).
T8 sequence: T1 sequence
Described as above.

B1: YFP^N-PKS5 (protein, UniProt O22932 1-435)
chain: T2 sequence
B1: the binding result with YFP^C-SOS2 (Arabidopsis) was “binds”.

B2: pGADT7-SOS2 (protein, UniProt Q9LDI3 1-446)
chain: T1 sequence
On to B2, for which the binding result in assay [1] is “binds”.

B3: pGADT7-14-3-3λ (protein, UniProt P48349 1-248)
chain: MAATLGRDQYVYMAKLAEQAERYEEMVQFMEQLVTGATPAEELTVEERNLLSVAYKNVIGSLRAAWRIVSSIEQKEESRKNDEHVSLVKDYRSKVESELSSVCSGILKLLDSHLIPSAGASESKVFYLKMKGDYHRYMAEFKSGDERKTAAEDTMLAYKAAQDIAAADMAPTHPIRLGLALNFSVFYYEILNSSDKACNMAKQAFEEAIAELDTLGEESYKDSTLIMQLLRDNLTLWTSDMQEQMDEA
In the case of B3, the binding entry in assay [2] is “no binding”; in assay [3], “binds”; in assay [4], “no binding”; in assay [1], “binds”; in assay [5], “binds”.

B4: 14-3-3λ^G216A (luciferase complementation) (protein, UniProt P48349 1-248)
chain: B3 chain with G216A
Take B4: the binding entry (in assay [6]; with nLuc-SOS2 (Arabidopsis)) was “binds” in each case.

B5: cLuc-14-3-3λ (protein, UniProt P48349 1-248)
chain: B3 chain
As to B5, the binding entry (in assay [6]; with nLuc-SOS2 (Arabidopsis)) was “binds” throughout.

B6: 14-3-3λ^G216A (yeast two-hybrid) (protein, UniProt P48349 1-248)
chain: B3 chain with G216A
In the case of B6, the binding result in assay [3] and in assay [1] was “binds” in each case.

These data come from publication PMC6416337.
